# About 25,000 (6.9%) of roughly 360,000 compounds were called active. The inconclusive results got no clear call from the source; some entries with a clear call stand among them for comparison. Calls come from the whole dose curve; as a rule, active = well fitted inhibition curve with a large enough effect; inconclusive = small, poorly fitted or top-dose-only effect; inactive = flat fitted curve, though single readings scatter. Potencies of inconclusive entries are doubtful fits and often do not repeat.
# Target: Luciferin 4-monooxygenase (Photinus pyralis) (UniProt P08659)
# Assay: qHTS profiling assay for firefly luciferase inhibitor/activator using purifed enzyme and Km concentrations of substrates (counterscreen for miR-21 project); note: nearly all actives have a fitted effect of over 55% in size
# Details: purified FLuc, luminescence inhibition; series mostly up to 57.5 µM
# In short: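 Purified P. pyralis luciferase (10nM final) with 10uM D-luciferin and 10uM ATP (Km levels) in 50mM Tris acetate pH 7.5, 10mM Mg acetate, 0.01% Tween-20, 0.05% BSA; qHTS 6-point titration, ~60 µM downward; luminescence read.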
# Potency is the fitted concentration of half-maximal effect; tags give direction and shape of the fitted curve.
# Chain of UniProt P08659 (P08659 whole entry, looked up): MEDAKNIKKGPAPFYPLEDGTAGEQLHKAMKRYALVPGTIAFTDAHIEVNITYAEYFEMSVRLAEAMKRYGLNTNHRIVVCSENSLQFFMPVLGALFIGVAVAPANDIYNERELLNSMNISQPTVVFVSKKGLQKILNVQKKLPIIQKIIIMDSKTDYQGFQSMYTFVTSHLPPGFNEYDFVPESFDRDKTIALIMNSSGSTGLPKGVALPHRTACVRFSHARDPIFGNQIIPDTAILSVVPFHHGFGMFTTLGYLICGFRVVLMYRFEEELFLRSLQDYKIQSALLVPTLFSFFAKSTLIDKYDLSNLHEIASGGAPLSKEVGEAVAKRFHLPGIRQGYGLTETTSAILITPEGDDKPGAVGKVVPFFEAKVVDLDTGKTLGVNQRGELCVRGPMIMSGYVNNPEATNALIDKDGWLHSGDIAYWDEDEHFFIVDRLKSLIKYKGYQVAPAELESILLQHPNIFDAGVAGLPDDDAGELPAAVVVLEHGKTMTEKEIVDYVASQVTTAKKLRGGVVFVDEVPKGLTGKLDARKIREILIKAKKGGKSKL
row,Structure (SMILES),Potency
1,COc1cc(/C=N/NC(N)=S)ccc1OCc1ccc(C)cc1,"inconclusive: 6.01 µM [inhibitor, single point]"
2,COc1cccc(N(CC(=O)N/N=C(\C)c2cccs2)S(C)(=O)=O)c1,inactive
3,Cc1ccc(S(=O)(=O)NCC(c2ccc3c(c2)OCO3)N2CCOCC2)cc1 (stereo not given),inactive
4,O=C(N=C1SCC(=O)N1c1ccccc1Cl)c1ccccc1,"inconclusive: 16.9 µM [inhibitor, partial curve]"
5,CCn1cc(C(=O)NCc2ccccc2Cl)c(=O)c2cc(S(=O)(=O)N3CCCCCC3)ccc21,"inconclusive: 37.9 µM [inhibitor, partial curve, poor fit]"
6,O=C(Cc1c[nH]c2ccccc12)N/N=C/c1ccccc1O,"inconclusive: 30.1 µM [inhibitor, partial curve, poor fit]"
7,CCCCC(Br)C(=O)Nc1ccc(S(=O)(=O)Nc2cc(C)nc(C)n2)cc1 (stereo not given),inactive
8,Cc1ccccc1CNC(=O)c1ccc(Cn2c(SCc3ccccc3)nc3cccnc32)cc1,active: 2.69 µM
9,O=C(/C=C/c1ccc(Cl)cc1)N1CCN(c2ccccn2)CC1,"inconclusive: 5.36 µM [inhibitor, partial curve, poor fit]"
10,O=C(Nc1cccs1)Nc1cccnc1Cl,"inconclusive: 26.9 µM [inhibitor, partial curve, poor fit]"
11,Cc1ccc(N(CCO)C(=S)Nc2ccccc2)cc1,inactive
12,Cc1ccc(/C=N/NC(=O)CN2CCN(Cc3ccccc3)CC2)o1,inactive
13,COc1ccccc1OC(=O)c1cc(Cl)nc2ccccc12,"inconclusive: 37.9 µM [inhibitor, partial curve, poor fit]"
14,CCn1cc(C(=O)O)c(=O)c2cc(F)c(N3CCN(C(=S)NC(=O)c4cccc(F)c4)CC3)cc21,inactive
15,Oc1ccc(Br)cc1C=Nc1ccc2[nH]ncc2c1,"inconclusive: 7.57 µM [inhibitor, partial curve, poor fit]"
16,COc1ccc(OC)c(S(=O)(=O)NCc2ccc3c(c2)CCN3C(=O)c2cccc(C)c2)c1,inactive
17,Cc1cccc(NC(=O)c2snc3c(=O)[nH]cnc23)c1,inactive
18,COc1ccc(-n2nc(C(=O)NCC(=O)NC3CCCCC3)c3ccccc3c2=O)cc1,"inconclusive: 26.9 µM [inhibitor, single point]"
19,COc1cccc(NC(=O)N2CCCCCC2)c1,"inconclusive: 23.9 µM [inhibitor, partial curve]"
20,O=C(CCNC(=O)c1ccc([N+](=O)[O-])cc1)Nc1cccc(S(=O)(=O)N2CCCCCC2)c1,inactive
21,Cc1ccc(-c2nnc(/C=C/c3ccccc3)o2)cc1,active: 16.9 µM
22,NC(=O)c1cc[n+](CC(=O)NC(=O)Nc2ccccc2)cc1,inactive
23,COc1ccccc1Nc1nc(-c2ccc3c(c2)NC(=O)CO3)cs1,"inconclusive: 30.1 µM [inhibitor, single point]"
24,Cc1cc(-c2ccccc2)nc(N/N=C/c2ccco2)n1,active: 12 µM
25,CC(C)COc1ccc(C(=O)N2CCC(c3nc4ccccc4s3)CC2)cc1,"inconclusive: 13.5 µM [inhibitor, partial curve, poor fit]"

row,Structure (SMILES),Potency
1,O=C(COc1ccc(Nc2ccccc2)cc1)OCC(=O)N1CCCCC1,"inconclusive: 26.9 µM [inhibitor, single point]"
2,CCOC(=O)c1sc(-c2ccc(F)cc2)cc1N,active: 9.53 µM
3,CCn1c(SCC(=O)Nc2sccc2C(N)=O)nnc1C1CC1,inactive
4,Cc1cc(C)c2c(=O)n(CC(=O)Nc3cccc(F)c3)sc2n1,active: 9.53 µM
5,COc1ccc(NC(=O)c2[nH]c(C)c(C(C)=O)c2C)cc1,"inconclusive: 23.9 µM [inhibitor, single point]"
6,COC(=O)Nc1nc(-c2ccc(F)cc2)c(C)s1,"inconclusive: 16.9 µM [inhibitor, partial curve]"
7,O=C(COC(=O)c1ccc2ccccc2n1)c1ccccc1,active: 6.75 µM
8,Cc1ccc(OCc2ccc(C(=O)O)o2)cc1C,active: 10.7 µM
9,COc1cc(C(=O)NCCSc2ccccc2)cc(OC)c1OC,inactive
10,Cc1ccc2[nH]c(C(=O)N3CCCCC3)cc2c1,"inconclusive: 37.9 µM [inhibitor, single point]"
11,CCOc1ccc(C(=O)Nc2ccc3nc4c(c(Nc5ccccc5OC)c3c2)CCCC4)cc1,inactive
12,Cc1oc(-c2ccccc2)cc1C(=O)Nc1cccc(/C=C/C(=O)O)c1,active: 15.1 µM
13,CCOc1ncccc1C(=O)OCC(=O)Nc1ccc(-c2nc3ccc(C)cc3s2)cc1,active: 5.36 µM
14,Cc1ccc(-c2csc(NNC(=O)c3ccccc3)n2)cc1,"inconclusive: 33.8 µM [inhibitor, single point]"
15,Cc1cc(C(=O)N/N=C/c2ccncc2)c(C)o1,"inconclusive: 33.8 µM [inhibitor, partial curve, poor fit]"
16,COc1ccc(C(=O)Nc2ccc(-c3cn4ccsc4n3)cc2)cc1S(=O)(=O)N1CCOCC1,inactive
17,COc1ccc(-c2cc(C(=O)Oc3cccc(C)c3C)c3ccccc3n2)cc1,"inconclusive: 26.9 µM [inhibitor, partial curve]"
18,O=C(CSc1nnc(-c2ccccc2O)n1-c1ccccc1)Nc1cccc(C(=O)O)c1,"inconclusive: 26.9 µM [inhibitor, partial curve, poor fit]"
19,Cc1ccc(-n2nnnc2SCc2nnc(-c3ccccc3Br)o2)cc1,inactive
20,O=C(COc1ccccc1Cl)N1CCN(C(=O)c2ccco2)CC1,inactive
21,CCc1ccc(CN/C=C/C(=O)c2ccc(Br)cc2)cc1,"inconclusive: 37.9 µM [inhibitor, single point]"
22,COc1ccc(NC(=O)CCc2nnc3n(CC(C)C)c(=O)c4ccccc4n23)cc1OC,inactive
23,CCCCc1nc2cc(C(=O)NCCc3cnn(C)c3)ccc2o1,"inconclusive: 26.9 µM [inhibitor, single point]"
24,Cc1cc(SCC(=O)c2ccccc2)nc(=O)[nH]1,active: 15.1 µM
25,O=C1CSC(=S)N1N1C(=O)c2cccc([N+](=O)[O-])c2C1=O,"inconclusive: 21.3 µM [inhibitor, partial curve, poor fit]"

row,Structure (SMILES),Potency
1,O=C(COC(=O)CN1C(=O)C(=O)c2ccccc21)OCN1C(=O)c2ccccc2C1=O,inactive
2,O=C(OCc1nc2ccccc2s1)c1ccc(Br)o1,"inconclusive: 37.9 µM [inhibitor, single point]"
3,CCOC(=O)c1sc(NS(=O)(=O)c2ccc(F)cc2)nc1C,"inconclusive: 30.1 µM [inhibitor, partial curve, poor fit]"
4,CC1=NN(c2ccccc2)C(=O)/C1=C\c1ccc(Oc2ccc([N+](=O)[O-])cc2[N+](=O)[O-])cc1,"inconclusive: 21.3 µM [inhibitor, partial curve, poor fit]"
5,Cc1cccc(Cc2nnc(CCC(=O)N(C)CCc3ccccc3)o2)c1,active: 7.57 µM
6,Cc1ccc(OC(=O)c2cc3ccccc3o2)cc1,active: 0.757 µM
7,c1ccc(-c2nc(-c3ccccn3)no2)cc1,active: 0.536 µM
8,O=C(NCc1ccco1)Nc1ccc(OC(F)(F)F)cc1,"inconclusive: 42.6 µM [inhibitor, partial curve, poor fit]"
9,COc1ccc(S(=O)(=O)Nc2c(C)n(C)n(-c3ccccc3)c2=O)cc1C(=O)O,inactive
10,CSc1ccc(/C=C/C(=O)Nc2ccccc2)cc1,active: 0.239 µM
11,COc1ccc(/C=C/C(=O)OCC(=O)Nc2ccc(Cl)c(S(=O)(=O)N(C)C)c2)cc1OC,active: 23.9 µM
12,CCc1c(C)c(C#N)c2nc3ccccc3n2c1Nc1cccc(C(F)(F)F)c1,inactive
13,Cc1ccc(NS(=O)(=O)c2cccs2)cc1S(=O)(=O)N1CCCCCC1,"inconclusive: 30.1 µM [inhibitor, partial curve, poor fit]"
14,Cc1cc(C)c(NC(=O)NC(=O)C(Cl)(Cl)Cl)c(C)c1,"inconclusive: 12 µM [inhibitor, partial curve, poor fit]"
15,COC(=O)c1ccc(/C=N/NC(=O)c2ccc3nc[nH]c3c2)cc1,"inconclusive: 12 µM [inhibitor, partial curve]"
16,COc1ccc(/C=N/OC(=O)Nc2ccccc2)cc1[N+](=O)[O-],active: 15.1 µM
17,Cc1ccc(C(=O)NN2C(=O)/C(=C/c3cccn3C)SC2=S)cc1,"inconclusive: 37.9 µM [inhibitor, partial curve, poor fit]"
18,Cc1ccccc1OCc1csc(N)n1,"inconclusive: 21.3 µM [inhibitor, partial curve, poor fit]"
19,O=C(CC1SCCNC1=O)Nc1ccc(Cl)c(Cl)c1 (stereo not given),"inconclusive: 37.9 µM [inhibitor, single point]"
20,O=C(N/N=C/c1c[nH]c2ccccc12)c1ccccc1Cl,"inconclusive: 37.9 µM [inhibitor, single point]"
21,Cn1nc(-c2ccccc2)cc1NC(=O)C1CCCCC1,"inconclusive: 26.9 µM [inhibitor, partial curve, poor fit]"
22,O=C(NCCCl)C1Cc2c(ccc3ccccc23)O1 (stereo not given),inactive
23,CC(C)NC(=O)COc1coc(CN2CCN(c3ccccc3F)CC2)cc1=O,inactive
24,CCCCCc1nnc(NC(=O)C2CCCO2)s1 (stereo not given),"inconclusive: 26.9 µM [inhibitor, partial curve, poor fit]"
25,CCN(CC)c1ccc(/C=N/NC(=O)CNC(=O)c2cccnc2)cc1,"inconclusive: 26.9 µM [inhibitor, partial curve]"
